These are yes or no findings as the source states them, for the method shown. Binding seen in cells or lysates may run through a third protein. Some binding calls cover weakened binding; strength is not graded here. Tags and fused reporters may be left off the sequences shown.

Chains of the proteins cited; added tags and fusions are not shown. Lines headed by an entry give the natural chain unless they say otherwise; changes in a name come on top. A line that says so, or that is headed by a name, gives the form on record, which may keep a tag or linker.
Cherry-FLAG-ATG16L1 (Q8C0J2-3, form named): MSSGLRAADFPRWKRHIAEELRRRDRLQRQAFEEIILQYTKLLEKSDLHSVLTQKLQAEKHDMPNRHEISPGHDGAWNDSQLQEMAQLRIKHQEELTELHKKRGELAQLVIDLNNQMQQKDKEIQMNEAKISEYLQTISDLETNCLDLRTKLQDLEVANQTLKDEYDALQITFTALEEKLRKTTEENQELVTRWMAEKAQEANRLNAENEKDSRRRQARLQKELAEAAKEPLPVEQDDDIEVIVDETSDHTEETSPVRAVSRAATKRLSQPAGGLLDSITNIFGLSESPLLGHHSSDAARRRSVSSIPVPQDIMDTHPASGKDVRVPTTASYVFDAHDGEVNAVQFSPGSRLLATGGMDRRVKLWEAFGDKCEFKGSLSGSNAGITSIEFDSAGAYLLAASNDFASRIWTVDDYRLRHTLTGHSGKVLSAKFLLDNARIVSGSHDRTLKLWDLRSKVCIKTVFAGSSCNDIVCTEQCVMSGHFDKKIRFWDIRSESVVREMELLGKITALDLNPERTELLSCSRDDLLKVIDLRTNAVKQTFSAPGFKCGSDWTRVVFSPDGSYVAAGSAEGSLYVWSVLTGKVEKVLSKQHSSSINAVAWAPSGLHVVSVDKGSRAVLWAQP
GFP-N-ATG16L1 (Q8C0J2-3, form named): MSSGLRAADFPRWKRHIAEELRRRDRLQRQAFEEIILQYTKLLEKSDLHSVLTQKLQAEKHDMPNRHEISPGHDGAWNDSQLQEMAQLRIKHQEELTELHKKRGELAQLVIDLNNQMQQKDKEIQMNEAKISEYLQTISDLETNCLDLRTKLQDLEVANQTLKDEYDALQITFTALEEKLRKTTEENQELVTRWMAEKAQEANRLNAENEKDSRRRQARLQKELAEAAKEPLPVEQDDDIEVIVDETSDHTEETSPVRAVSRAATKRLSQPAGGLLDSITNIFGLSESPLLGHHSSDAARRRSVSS
UniProt Q676U5: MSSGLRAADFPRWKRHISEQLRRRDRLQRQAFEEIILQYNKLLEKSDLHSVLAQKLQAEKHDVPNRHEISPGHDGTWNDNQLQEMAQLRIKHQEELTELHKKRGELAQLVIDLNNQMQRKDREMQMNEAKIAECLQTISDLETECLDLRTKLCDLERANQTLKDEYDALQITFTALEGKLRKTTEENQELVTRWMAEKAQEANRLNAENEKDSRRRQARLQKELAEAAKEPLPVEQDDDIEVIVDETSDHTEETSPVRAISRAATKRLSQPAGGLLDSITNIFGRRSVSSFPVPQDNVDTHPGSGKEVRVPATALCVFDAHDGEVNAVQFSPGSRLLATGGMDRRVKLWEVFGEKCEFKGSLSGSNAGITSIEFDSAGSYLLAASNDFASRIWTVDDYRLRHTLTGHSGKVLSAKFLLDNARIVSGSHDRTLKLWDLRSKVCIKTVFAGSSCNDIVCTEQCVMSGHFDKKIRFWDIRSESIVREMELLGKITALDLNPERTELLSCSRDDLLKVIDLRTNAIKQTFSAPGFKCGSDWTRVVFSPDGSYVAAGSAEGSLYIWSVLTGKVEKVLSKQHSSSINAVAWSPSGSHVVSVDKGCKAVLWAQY

We go through six molecules from publication PMC7937689.

The target of one test is T1, MYC-SPATA33 (mouse) (UniProt Q8C624).
T1 sequence: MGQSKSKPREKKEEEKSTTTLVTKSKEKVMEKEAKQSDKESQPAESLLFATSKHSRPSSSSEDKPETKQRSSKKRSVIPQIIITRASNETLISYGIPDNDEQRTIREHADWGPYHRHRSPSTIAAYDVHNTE
Description: co-IP; HEK293T cells co-transfected with both tagged constructs, lysed after 48 h in IP buffer (50 mM Tris-HCl pH 8.0, 0.15 M NaCl, 1 mM EGTA, 0.5% NP-40); precipitation by one tag (anti-MYC, anti-FLAG or anti-GFP), western blot for the other.

Another test has as its target T2, 3xFLAG-SPATA33 (mouse) (UniProt Q8C624).
T2 sequence: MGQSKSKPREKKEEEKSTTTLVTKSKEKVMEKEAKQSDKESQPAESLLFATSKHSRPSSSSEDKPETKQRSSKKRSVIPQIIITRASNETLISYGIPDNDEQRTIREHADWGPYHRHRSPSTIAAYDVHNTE
Description: co-IP; HEK293T cells transfected with p3xFLAG-SPATA33, whole cell lysate after 48 h; precipitation with anti-ATG16L1 or anti-FLAG, western blot with anti-ATG16L1 or anti-FLAG; ATG16L1 endogenous. (Immunoblotting shows a protein as a band on a membrane.)

A further test concerns the target Cherry-FLAG-ATG16L1 (UniProt Q8C0J2). Description: co-IP; HEK293T cells co-transfected with both tagged constructs, lysed after 48 h in IP buffer (50 mM Tris-HCl pH 8.0, 0.15 M NaCl, 1 mM EGTA, 0.5% NP-40); precipitation by one tag (anti-MYC, anti-FLAG or anti-GFP), western blot for the other.
The target of a further test is T3, 3xFLAG-VDAC2 (UniProt Q60930).
T3 sequence: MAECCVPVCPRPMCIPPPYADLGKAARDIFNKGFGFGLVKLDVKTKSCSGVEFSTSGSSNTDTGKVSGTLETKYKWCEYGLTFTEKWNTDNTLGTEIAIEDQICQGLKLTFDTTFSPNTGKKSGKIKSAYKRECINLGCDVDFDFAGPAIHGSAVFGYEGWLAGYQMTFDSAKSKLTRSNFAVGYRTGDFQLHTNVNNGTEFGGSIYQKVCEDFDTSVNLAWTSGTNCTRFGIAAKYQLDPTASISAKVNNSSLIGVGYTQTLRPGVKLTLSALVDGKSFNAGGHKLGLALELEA
Described as above.

Regarding “Cherry-FLAG-ATG16L1 (from UniProt Q8C0J2-3 1-623)”, the binding entry in the test with MYC-SPATA33 (mouse) was “binds”.

Consider “endogenous ATG16L1 (HEK293T) (from UniProt Q676U5 1-607)”, for which the binding result with 3xFLAG-SPATA33 (mouse) is “binds”.

“GFP-N-ATG16L1 (from UniProt Q8C0J2-3 1-306) (domain or fragment)”: the binding entry in the test with MYC-SPATA33 (mouse) is “no binding”.

B1: GFP-N-SPATA33 (domain or fragment, UniProt Q8C624 1-60)
chain: MGQSKSKPREKKEEEKSTTTLVTKSKEKVMEKEAKQSDKESQPAESLLFATSKHSRPSSS
For the molecule B1, the binding result in the test with Cherry-FLAG-ATG16L1 is “binds”; in the test with 3xFLAG-VDAC2, “no binding”.

B2: MYC-SPATA33 (protein, UniProt Q8C624 1-132)
chain: MGQSKSKPREKKEEEKSTTTLVTKSKEKVMEKEAKQSDKESQPAESLLFATSKHSRPSSSSEDKPETKQRSSKKRSVIPQIIITRASNETLISYGIPDNDEQRTIREHADWGPYHRHRSPSTIAAYDVHNTE
Consider B2, for which the binding result with Cherry-FLAG-ATG16L1 is listed as “binds”.

B3: GFP-SPATA33 (protein, UniProt Q8C624 1-132)
chain: MGQSKSKPREKKEEEKSTTTLVTKSKEKVMEKEAKQSDKESQPAESLLFATSKHSRPSSSSEDKPETKQRSSKKRSVIPQIIITRASNETLISYGIPDNDEQRTIREHADWGPYHRHRSPSTIAAYDVHNTE
Regarding B3, the binding result with 3xFLAG-VDAC2 is listed as “binds”.
